Hit rate of the full screen: of about 50,000 compounds, about 800 (1.6%) showed an effect of 50% or more. Some of the results follow.
target: Bcl-2-like protein 10 (Homo sapiens) (UniProt Q9HD36); test: Phenotype converters, Bcl-B/TR3 peptide binding displacement, primary biochemical FP (AID 1240); conditions: GST-Bcl-B / FITC-TR3 peptide fluorescence polarization; stronger effect = higher value; compound at 3.75 mg/L;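 note: 0% = Bcl-B with tracer peptide and DMSO and 100% = tracer peptide lacking Bcl-B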
UniProt Q9HD36, sequence (Q9HD36 whole entry, looked up): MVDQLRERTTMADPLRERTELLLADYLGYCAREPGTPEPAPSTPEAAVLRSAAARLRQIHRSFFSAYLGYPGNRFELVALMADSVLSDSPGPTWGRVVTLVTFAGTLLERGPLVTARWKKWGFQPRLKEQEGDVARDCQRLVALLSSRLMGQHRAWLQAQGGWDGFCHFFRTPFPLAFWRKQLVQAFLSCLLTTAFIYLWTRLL

Structure (SMILES)	displacement
CC(=O)Oc1ccc(C(=O)Nc2cc(C)on2)cc1	4.2%
COC(=O)c1c(NC(=O)c2c(OC)cccc2OC)sc2c1C(C(=O)OC)CC2 (configuration not stated)	-3.2%
O=C(COc1ccc2ccccc2c1)NC1C2CC3CC(C2)CC1C3 (configuration not stated)	11.6%
Cc1c(Br)c([N+](=O)[O-])nn1CC(=O)NC1CCCCC1	-6.1%
COc1cc(C(C)=O)ccc1OC(=O)c1ccc([N+](=O)[O-])cc1Cl	0.5%
C(=C\c1ccccc1)/CSc1nnc(-c2ccc3c(c2)OCO3)n1-c1ccccc1	-3.9%
O=C(O)CC12CC3CC(CC(S)(C3)C1)C2	19.9%
CCCCOc1ccc2ccc(=O)oc2c1	39.9%
C#CCSc1nc2ccccc2n1C(=O)/C=C/c1cccc([N+](=O)[O-])c1	6.3%
Cc1ccc(NC2=C(Cl)C(=O)N(c3ccccc3Cl)C2=O)cc1Cl	-4.4%
COc1ccc(NC(=O)c2ccccc2F)cc1OC	-5.4%
O=C(Nc1ccccc1)/C(=C\c1cccc(Br)c1)NC(=O)c1ccccc1	4.5%
CCOC(=O)c1c(NC(=O)Cc2ccc(Cl)cc2)sc(C(=O)Nc2ccccc2OC)c1C	-0.5%
CCCCOc1cc2oc(=O)c(CC)c(C)c2cc1CC	0.2%
O=C1NC(=O)N(c2cccc(F)c2)C(=O)/C1=C/c1ccc(I)o1	5.9%
CC(=O)NC(Oc1ccc(C=Nc2c(C)n(C)n(-c3ccccc3)c2=O)cc1)C(Cl)(Cl)Cl (configuration not stated)	-2.8%
COc1cc(C2NC(C(=O)O)CS2)cc(I)c1OCc1ccccc1 (configuration not stated)	-19.6%
CCn1c(/N=C/c2c(O)ccc3ccccc23)nc2ccccc21	20.6%
CC(=O)Nc1ccc(-c2ccnc(-c3ccc(NC(C)=O)cc3)n2)cc1	-51.8%
O=C1NN(c2ccc(Br)cc2)C(=O)/C1=C\c1ccccc1	21.3%
O=[N+]([O-])c1cc([N+](=O)[O-])c(Nc2ccccn2)nc1Nc1ccccn1	9%
CCOC(=O)/C(C#N)=C1\C=CNC(=O)N1	2.6%

Structure (SMILES)	displacement
O=C(CSc1nsc(SCC(=O)Nc2nccs2)n1)Nc1nccs1	26.3%
O=C(NC(NC(=S)Nc1cccc2ccccc12)C(Cl)(Cl)Cl)c1ccccc1F (configuration not stated)	-6.9%
CC1=C(C(=O)Nc2ccccc2)C(c2ccccc2F)NC(=O)N1 (configuration not stated)	15.9%
Oc1cccc(C=Nc2ccccc2O)c1	14.7%
CCOC(=O)c1c(NC(=O)CCN2C(=O)c3cccc4cccc(c34)C2=O)sc2c1CCC2	-6%
CCOc1ccc(NC(=O)CC2S/C(=N\N=C(/C)c3ccc([N+](=O)[O-])cc3)NC2=O)cc1 (configuration not stated)	-1.5%
COc1cc(C2=Nc3ccc(Br)cc3C(c3ccccc3)N2CC(=O)NN)cc(OC)c1OC (configuration not stated)	-10.2%
COc1ccc2c(c1)OCC/C2=N\OC(=O)c1ccccc1OC	-7.8%
COC(=O)CSc1nc(C)cc(C)n1	5.9%
O=C(O)CN1C(=O)/C(=C\c2ccc(OC(=O)c3ccc(Cl)cc3Cl)cc2)SC1=S	10.5%
CCN1C(=O)NC(c2ccc(SC)cc2)C(C(=O)OCCOC)=C1C (configuration not stated)	-9.3%
CCN1CCc2c(sc(NC(=O)Nc3ccc(Cl)cc3)c2C(N)=O)C1	21.3%
CCOC(=O)C(C)N(c1ccc(OC)cc1)S(C)(=O)=O (configuration not stated)	2.6%
Cc1cccc(C(=O)Nc2sc3c(c2C(=O)N2CCOCC2)CCCC3)c1	0.9%
O=C(NC(=S)Nc1ccc(-c2nc3cc(Cl)ccc3o2)cc1)c1ccccc1Cl	-8.9%
N#C/C(=C/c1ccc(I)o1)C(=O)Nc1ccccc1Cl	-6.3%
COc1ccc(S(=O)(=O)Nc2ccc(Br)cc2F)cc1	-10.2%
Cc1cccc(NC(=O)C(=O)N/N=C/c2c(Cl)cccc2Cl)c1C	13%
O=C(Nc1sc2c(c1C(=O)N1CCOCC1)CCCCC2)c1ccc([N+](=O)[O-])cc1	-2.7%
O=C(Nc1ccccc1C(F)(F)F)c1ccc(-c2cccc(Cl)c2)o1	-8.1%
COc1ccc(C(=O)N2CCN(c3ccc([N+](=O)[O-])cc3)CC2)cc1Cl	17.7%
O=C(Nc1ccccc1C(=O)N1CCOCC1)c1ccccc1Cl	15.5%

Structure (SMILES)	displacement
COc1ccc(C2=C/C(=C/c3ccc(OC)c(OC)c3)C(=O)O2)cc1	154%
CC(=O)Nc1ccc(C(=O)N2CCCc3ccccc32)cc1	-7.1%
c1ccc2cc(OCCCCN3CCOCC3)ccc2c1	-5.3%
CCOC(=O)c1c(NC(=O)c2cc(OC)c(OC)c(OC)c2)sc(C(=O)Nc2ccc(OC)cc2OC)c1C	-17.5%
CSc1nc(=S)n(-c2ccc([N+](=O)[O-])cc2)c(C)c1C(C)=O	-6.7%
Cc1[nH]c2ccccc2c1C(=O)/C=C/c1cccs1	-1.3%
Cc1onc(-c2ccccc2Cl)c1C(=O)NC1CCCCCC1	5.4%
CCOc1ccc(S(=O)(=O)NNc2ccccc2)cc1	-6.1%
COc1cc(C2N(C)c3ccccc3N2C)cc(OC)c1OC	-8.1%
O=C(O)CCC(=O)N1N=C(c2ccccc2)CC1c1ccccc1Cl (configuration not stated)	13.2%
CCCS(=O)(=O)c1c(S(=O)(=O)CCC)c2cc(-c3ccncc3)ccn2c1C(=O)c1ccccc1	-3.5%
CCOc1ccc(C(=O)Nc2ccc(NC(=O)c3ccccc3)c(C)c2)cc1	9.4%
NC(=O)C12CC3CC(C1)CC(C(N)=O)(C3)C2	-18.4%
CN(C)c1ccc(NC(=O)Nc2ccc(Cl)cc2)cc1	-8.6%
COCCc1nnc(NC(=O)Cc2ccccc2)s1	1.2%
COC(=O)C1=C(C)N=c2s/c(=C\c3ccc(-c4ccccc4C(=O)O)o3)c(=O)n2C1c1ccccc1 (configuration not stated)	-44%
N#CSCCCCOc1ccccc1Br	15.9%
O=c1[nH]c(=O)n(-c2cccc(Cl)c2)c(O)c1C=NCCCn1ccnc1	142%
O=[N+]([O-])c1ccc(N2CCN(S(=O)(=O)c3ccccc3)CC2)c2cccnc12	10.2%
COc1ccc(OC)c(C(O)c2nc3ccccc3n2C)c1 (configuration not stated)	-3.9%
CC(=O)Nc1ccc(S(=O)(=O)Nc2nc(C)cc(-n3nc(C)cc3C)n2)cc1	-3.7%
COC(=O)c1c(N)sc(C)c1-c1ccc(C(C)(C)C)cc1	8.1%

Structure (SMILES)	displacement
Cc1ccc(C23CC4CC(CC(C(=O)N5CCCC5)(C4)C2)C3)cc1	-3.3%
O=C(Nc1ccccc1)c1ccc(NS(=O)(=O)c2ccccc2)cc1	9.6%
Cc1ccc(CC2C(=O)N(c3ccc([N+](=O)[O-])cc3)C(=O)C2C)cc1 (configuration not stated)	3%
COC(=O)c1cccc(-n2c(C)cc(/C=C3\SC(NC(C)=O)=NC3=O)c2C)c1	1.1%
O=C(CSc1nc2ccccc2s1)OCc1ccc([N+](=O)[O-])cc1	-0.7%
COc1ccc(/C=C/C(=O)NCc2ccc(OC)cc2)cc1	3.7%
COc1cc(/C=C2\C(=O)NC(=O)N(c3ccc(Br)cc3)C2=O)c([N+](=O)[O-])cc1OC	5%
CCN1C(=O)/C(=C\c2ccccc2OCCOCCOc2ccc(C)cc2)SC1=S	26.9%
CCc1nnc(NC(=O)c2ccc(OC)cc2OC)s1	4.7%
S=C(Nc1ccccc1)Nc1ccccc1NC(=S)Nc1ccccc1	9.7%
CC(C)C(C(=O)O)N1C(=O)/C(=C/c2cccc([N+](=O)[O-])c2)SC1=S (configuration not stated)	10.4%
Cc1ccccc1NC(=O)C1C2C=CC(C3CC23)C1C(=O)O (configuration not stated)	4.7%
Cc1ccc(C23CC4CC(CC(C(=O)NCc5ccco5)(C4)C2)C3)cc1	-10.6%
O=C(Nc1cccc(-c2cn3ccccc3n2)c1)c1cccnc1	-1.3%
CC(C)(C)c1ccc(OCC(=O)Nc2ccc(N3CCOCC3)c(Cl)c2)cc1	-3.1%
COCCCN1C(=O)/C(=C\c2ccccc2O)C(C(=O)OC)=C1C	9.1%
COc1ccc(S(=O)(=O)N(CCc2ccccc2)CC(=O)NCCc2ccccc2)cc1	14.7%
COc1ccc(N=Nc2c(C)[nH]c3ccccc23)cc1	30.2%
Cc1nc2[nH]onc2c2nccc(=O)c12	9.3%
O=c1oc2cc(Oc3ccc(C(F)(F)F)cc3[N+](=O)[O-])ccc2c2c1CCCC2	-0.6%
Brc1cccc(/C=N\N2CCN(c3ccccc3)CC2)c1	-0.8%
COc1ccc(/C=C2\C(=O)NC(=O)N(c3ccc(C)cc3)C2=O)cc1C(=O)O	5.1%

Structure (SMILES)	displacement
COc1ccc(C(=O)N2CCN(C(=O)c3ccccc3F)CC2)cc1OC	-22%
Cc1c([N+](=O)[O-])c2ccc(O)cc2n1-c1ccc(Cl)cc1	10.3%
COc1ccccc1NCN1C(=O)S/C(=C/c2ccc(OC)c(OC)c2)C1=O	1.6%
O=C(O)CN1C(=O)/C(=C2/SC(=Nc3cccc(Cl)c3Cl)NC2=O)c2ccccc21	-5.6%
COc1ccccc1/C=C1/SC(=S)N(CCC(=O)N2c3ccccc3Sc3ccc(Cl)cc32)C1=O	-3.4%
CCc1ccc(-c2cc(C(=O)N3CCN(c4cccc(Cl)c4)CC3)c3ccccc3n2)cc1	15.2%
COc1ccccc1OCCn1cc(/C=C2/C(=O)NC(=O)N(c3ccccc3)C2=O)c2ccccc21	1.6%
CCCCc1c(C)nc(N/N=C/c2ccc(OC)c(OC)c2)[nH]c1=O	-8.4%
COc1ccc(OC)c(NC(=O)c2ccc3c(c2)C(=O)N(c2ccc(Cl)cc2)C3=O)c1	10.9%
c1nnc(Sc2nc(N3CCOCC3)nc(N3CCOCC3)n2)n1-c1nc(N2CCOCC2)nc(N2CCOCC2)n1	-3.5%
COC(=O)C1=C(C)NC2=C(C(=O)c3ccccc32)C1c1ccc(-c2ccccc2C(=O)O)o1 (configuration not stated)	10.7%
CC(=O)NC(=Nc1nc2ccccc2s1)NC(C)=O	0.8%
COc1cc(OC)c(OC)cc1CN1CCN(C2C3CC4CC(C3)CC2C4)CC1 (configuration not stated)	-6%
COC(=O)C1=C(O)/C(=C/c2ccccc2O)N=C1C	17.2%
O=C(NCc1ccco1)c1ccc(C#Cc2ccccc2)cc1	-5.8%
O=c1oc(-c2ccc(Cl)c(Cl)c2)nc2cc(Cl)ccc12	-1.2%
COc1ccc(NC(=O)Nc2nnc(Cc3ccccc3)s2)cc1	0.6%
O=C(O)/C=C/C(=O)Nc1ccc(N2CCCCC2)cc1	4.7%
O=C(CCc1ccccc1)NCC(=O)N/N=C/C=C/c1ccccc1	10.6%
